According to PubChem BioAssay AID485360 (National Center for Advancing Translational Sciences (NCATS), 2010):
The whole screen tested about 230,000 compounds, of which about 1,500 (0.65%) were called active. Inconclusive results, whose numbers are uncertain, are shown with a selection of clear calls. Calls come from the whole dose curve; as a rule, active = well fitted inhibition curve with a large enough effect; inconclusive = small, poorly fitted or top-dose-only effect; inactive = no such curve, though single readings can be large or run the other way. Potencies beside an inconclusive call are fits to weak or partial responses and may not hold up.

What follows are compounds tested against Lethal(3)malignant brain tumor-like protein 1 (Homo sapiens) (UniProt Q9Y468) (assay: qHTS Assay for the Inhibitors of L3MBTL1). Conditions: AlphaScreen L3MBTL1–H3K9me1 peptide binding; series mostly up to 57.1 µM.
UniProt Q9Y468, sequence (Q9Y468 whole entry, looked up): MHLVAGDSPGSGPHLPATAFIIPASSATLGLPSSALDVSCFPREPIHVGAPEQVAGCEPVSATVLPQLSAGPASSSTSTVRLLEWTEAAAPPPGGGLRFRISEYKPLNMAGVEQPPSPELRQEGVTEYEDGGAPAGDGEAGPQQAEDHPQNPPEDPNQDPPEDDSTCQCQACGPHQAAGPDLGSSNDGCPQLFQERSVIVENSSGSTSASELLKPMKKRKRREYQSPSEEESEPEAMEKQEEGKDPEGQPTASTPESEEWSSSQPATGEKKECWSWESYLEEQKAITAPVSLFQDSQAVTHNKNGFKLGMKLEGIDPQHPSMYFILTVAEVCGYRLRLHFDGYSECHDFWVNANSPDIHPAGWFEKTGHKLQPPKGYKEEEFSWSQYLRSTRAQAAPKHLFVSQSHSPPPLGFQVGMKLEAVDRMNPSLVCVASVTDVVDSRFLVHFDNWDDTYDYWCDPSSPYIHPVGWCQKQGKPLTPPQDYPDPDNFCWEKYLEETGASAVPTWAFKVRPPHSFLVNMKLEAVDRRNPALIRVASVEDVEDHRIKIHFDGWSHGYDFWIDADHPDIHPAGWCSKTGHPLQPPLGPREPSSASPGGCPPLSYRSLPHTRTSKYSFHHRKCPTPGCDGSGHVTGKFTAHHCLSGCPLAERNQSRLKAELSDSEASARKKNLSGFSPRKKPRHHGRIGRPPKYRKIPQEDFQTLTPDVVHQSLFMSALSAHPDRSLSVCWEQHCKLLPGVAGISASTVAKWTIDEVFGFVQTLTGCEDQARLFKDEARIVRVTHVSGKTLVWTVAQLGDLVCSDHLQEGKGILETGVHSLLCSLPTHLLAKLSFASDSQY
Procedure, shortened: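 L3MBTL1 (50 nM) pre-complexed 30 min with biotinylated H3(1-15)K9me1 peptide (75 nM), then compounds added for 30 min at room temperature; AlphaScreen streptavidin donor/nickel chelate acceptor beads (10 ug/mL final) read after 30 min dark incubation.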
Note: nearly all actives have a fitted effect of over 60% in size.
Potency is the fitted concentration of half-maximal effect; tags give direction and shape of the fitted curve.

Compound	Potency
COc1ccc(CNc2nc(-c3cccnc3)nn2S(C)(=O)=O)cc1	inconclusive: 2 µM [inhibitor, full curve, poor fit]
O=C(O)CCCNc1cc(N2CCC3(CC2)OCCO3)c2noc3c2c1C(=O)c1ccccc1-3	active: 10 µM
O=C(CSc1ccc(-c2ccccn2)nn1)N1CCCc2ccccc21	inconclusive: 35.5 µM [inhibitor, single point]
Cc1cccc(N2CCN(Cc3nc(-c4ccc(F)cc4F)oc3C)CC2)n1	inconclusive: 22.4 µM [inhibitor, partial curve]
COc1cccc(OC)c1OCCCCCc1c(C)n[nH]c1C	inactive
O=C(COC(=O)C1CC(=O)N(Cc2ccco2)C1)c1ccc(OC(=O)c2ccccc2)cc1 (stereo unspecified)	inconclusive: 25.1 µM [inhibitor, single point]
CSc1nnc(C2CCCN2)n1C (stereo unspecified)	inconclusive: 28.2 µM [inhibitor, single point]
COc1ccc(NC(=O)c2ccccc2Sc2ccc(NC(C)=O)nc2)cc1	inconclusive: 12.6 µM [inhibitor, partial curve]
CC1CC(C)(C)NC(=S)O1 (stereo unspecified)	inactive
Cc1ccc(N/N=C2\CS(=O)(=O)N(C)c3ccsc32)cc1	inconclusive: 1 µM [inhibitor, full curve, poor fit]
Oc1cc2c(cc1O)CN(C(=S)NCCc1ccc(Cl)cc1)CCC2	inconclusive: 39.8 µM [inhibitor, single point]
CC(=O)Oc1ccc(N(C(C)=O)S(=O)(=O)c2ccc(C)cc2C)c2ccccc12	inactive
CC(C)N(Cc1nc(-c2ccc(Cl)cc2)no1)Cc1nccn1C	inconclusive: 31.6 µM [inhibitor, single point]
N#Cc1nc(COc2ccccc2Cl)oc1N1CCCC1	active: 28.2 µM
Cc1ccc(N2CCN(S(=O)(=O)N(C)C)CC2)cc1Cl	inconclusive: 2 µM [inhibitor, single point]
CCc1ccc(CNC(=O)CCc2nnc(CCc3ccc(OC)cc3)o2)nc1	inactive
CCOC(=O)c1c(C)[nH]c(C)c1C(=O)COC(=O)c1ccc(OC)cc1	inconclusive: 0.112 µM [inhibitor, full curve, poor fit]
O=C(O)c1cccc(NN=C2c3ccccc3-c3ccccc32)c1	inconclusive: 31.6 µM [inhibitor, single point]
Cn1cccc1/C=C1\SC(=S)N(Nc2ccccc2)C1=O	inconclusive: 39.8 µM [inhibitor, single point]
O=C(N/N=C/C=C/c1ccccc1)c1ccccn1	inconclusive: 2.82 µM [inhibitor, full curve]
CCOC(=O)C1CCN(C(=O)Nc2ccc3nc(-c4ccco4)c(-c4ccco4)nc3c2)CC1	active: 3.55 µM
O=C(COC(=O)c1ccc(Br)o1)Nc1ncc([N+](=O)[O-])s1	inconclusive: 35.5 µM [inhibitor, single point]
CC(=O)c1cccc(NC2c3ncccc3C(=O)N2Cc2ccco2)c1 (stereo unspecified)	inconclusive: 39.8 µM [inhibitor, single point]

Compound	Potency
Cc1ccc(N=Cc2cccc(O)c2O)c(C)c1	active: 31.6 µM
Cc1cc2ccccn2c1C(=O)c1cccc(S(=O)(=O)N2CCOCC2)c1	inconclusive: 3.16 µM [inhibitor, full curve, poor fit]
O=C1NN(c2ccccc2)C(=O)/C1=C/c1ccc(-c2ccc(C(=O)O)cc2)o1	active: 12.6 µM
COC(=O)COc1cc(OCC(=O)OC)c2c(C)c(Cl)c(=O)oc2c1	inactive
COc1cc(C=NNc2ccc(S(=O)(=O)Nc3ccccc3C(=O)O)cc2[N+](=O)[O-])ccc1O	inconclusive: 12.6 µM [inhibitor, single point]
Cc1ccc(Nc2nnc(SCC(=O)NCc3ccco3)s2)cc1	inconclusive: 20 µM [inhibitor, single point]
O=C(NCCCn1ccnc1)Nc1cccc2ccccc12	inconclusive: 4.47 µM [inhibitor, single point]
COc1ccc(OC)c(Nc2ccc(Nc3cc(OC)ccc3OC)nn2)c1	inconclusive: 25.1 µM [inhibitor, single point]
Cc1ccc(OCc2nc(C#N)c(NCCCn3ccnc3)o2)cc1	inactive
CCCCCCN1C=CC=C/C1=C\C=C(C#N)C#N	inconclusive: 28.2 µM [inhibitor, partial curve]
CC(Sc1nnnn1-c1cccc(F)c1)C(=O)NC1CCCC1 (stereo unspecified)	inactive
Cc1coc2c1C(=O)C(=O)c1c-2ccc2c1CCCC2(C)C	inconclusive: 17.8 µM [inhibitor, partial curve]
O=C(Nc1cccc(F)c1)c1coc(=O)c(Br)c1	inconclusive: 39.8 µM [inhibitor, single point]
O=C(c1ccc([N+](=O)[O-])cc1)N(Cc1ccccc1)c1ccccn1	inconclusive: 44.7 µM [inhibitor, partial curve, poor fit]
COc1ccc(CCN(Cc2ccccn2)C(=S)Nc2ccccc2C)cc1OC	inconclusive: 0.447 µM [inhibitor, partial curve, poor fit]
CCCCN1CCc2[nH]c(=S)[nH]c(=O)c2C1	inactive
CCCCCNc1nc2sc3c(c2c(=O)n1-c1cccc(Cl)c1)CCN(C)C3	inconclusive: 31.6 µM [inhibitor, single point]
Cc1ccc(CN2C(=O)N/C(=C\c3ccc(N4CCOCC4)cc3)C2=O)cc1	inactive
CN1CCN(NS(=O)(=O)c2cccs2)CC1	inactive
Cc1cc(C)c2c(c1)-c1c(ssc1=S)C(C)(C)N2C(=O)CSc1nncn1C	inconclusive: 39.8 µM [inhibitor, single point]
C=CCn1c(O)c(N=NC(=S)Nc2cccc(C)c2)c2ccccc21	inconclusive: 15.8 µM [inhibitor, partial curve]
CCOc1ccc2c(c1)-c1c(ssc1=S)C(C)(C)N2C(=O)c1ccco1	inconclusive: 31.6 µM [inhibitor, single point]
O=c1[nH]c(/C(=N\O)c2ccccc2)no1	inconclusive: 35.5 µM [inhibitor, single point]
